According to the supplement of paper PMC10126150:
Sequences with one replicate were seen in a single cluster, so their values are uncertain.

Tested on: ATP
Experiment: switch fluorescence ratio, 500 uM ATP over buffer (Cy3 cluster intensity, sum of 5 cycles each) (fold (ratio)); higher = stronger signal-on switching upon ATP binding; sequences stand for … in TCGTCGGCAGCGTCAGATGTGTATAAGAGACAGTTTTTTTTTTTTTTTTTTTTTTTTT…TC
Conditions: aptamer strand: ATP DNA aptamer (quencher-CACCTGGGGGAGTATTGCGGAGGAAGG + anchor), 100 nM annealed; ATP concentration: 500 uM; one replicate
Procedure, shortened: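 After annealing to 100 nM quencher-labelled ATP aptamer, Cy3-labelled switching-strand clusters on a modified Illumina MiSeq flow-cell were imaged in selection buffer. A second image followed after 15 min with 500 uM ATP at 22 °C, and five such buffer/ATP cycles were done, each separated by NaOH stripping and re-annealing. The fluorescence ratio, averaged per switch-domain sequence, is summed target-cycle over summed buffer-cycle Cy3 intensity per cluster, with clusters outside 100-1000 RFU excluded.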
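Further: ATP exposure 15 min at 22 °C before imaging.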

CGACTTGGGT
switch fluorescence ratio: 1.06

TATCCTGTA
switch fluorescence ratio: 1.05

GATCTGTCCT
switch fluorescence ratio: 1.01

GCGGAACGGC
switch fluorescence ratio: 0.947

CCTTATATGT
switch fluorescence ratio: 0.986

CGGTCTATC
switch fluorescence ratio: 1.02

ATCACACACG
switch fluorescence ratio: 1.43

GGGAGGATCA
switch fluorescence ratio: 1.02

TTGAATAACT
switch fluorescence ratio: 1.03

CCCATGCTTC
switch fluorescence ratio: 1.15

AAATGTCAAC
switch fluorescence ratio: 1

GGATCCAATT
switch fluorescence ratio: 1

GAATTATTGA
switch fluorescence ratio: 1

TGGCGGGAGA
switch fluorescence ratio: 1.05

ATCCCCGGGA
switch fluorescence ratio: 1.03

CCATATGAGA
switch fluorescence ratio: 1.06

ATGTGTCCTC
switch fluorescence ratio: 1.02

TTAATTACCT
switch fluorescence ratio: 1.27

TTCGATCAGT
switch fluorescence ratio: 0.982

ATTGCATTCG
switch fluorescence ratio: 1.03

GAAAATACTA
switch fluorescence ratio: 0.964

TTTCAAAGTG
switch fluorescence ratio: 1.03

CTAGCAAACA
switch fluorescence ratio: 1.19

ACAGCACGGC
switch fluorescence ratio: 1.34

GTGGAGTCTT
switch fluorescence ratio: 0.999

GCATAGGCAT
switch fluorescence ratio: 1.02

CAGGGCCTAC
switch fluorescence ratio: 0.969

ACTGGTTTTA
switch fluorescence ratio: 1.03

GTATAGTCAA
switch fluorescence ratio: 0.991

TAGCGGCTA
switch fluorescence ratio: 0.99

TCGAGTCGGG
switch fluorescence ratio: 1.01

CATACTGGTG
switch fluorescence ratio: 1.22

ATTTAATTGA
switch fluorescence ratio: 0.973

GGTCACAGCG
switch fluorescence ratio: 0.956

GTTGTTGGAC
switch fluorescence ratio: 0.997

TGGGTGTACA
switch fluorescence ratio: 1.06

CTTAAATCGG
switch fluorescence ratio: 1.04

CTTTTGGAAC
switch fluorescence ratio: 0.992

CTTGGGGATA
switch fluorescence ratio: 1.03

TTCGTTAAGG
switch fluorescence ratio: 0.99

AAAGCAGCAT
switch fluorescence ratio: 1.02

TCTAGATATA
switch fluorescence ratio: 0.995

AAAGGGCTAG
switch fluorescence ratio: 0.993

GGGGCATCGC
switch fluorescence ratio: 0.935

CCGGGCCAG
switch fluorescence ratio: 1.08

TCTGTTCCTT
switch fluorescence ratio: 1

CTGCTAAGGG
switch fluorescence ratio: 1.01

ACCTTACACG
switch fluorescence ratio: 1.66

GGTATCAGTG
switch fluorescence ratio: 0.899

AGTTGTAATA
switch fluorescence ratio: 0.97

CAAGAAATCA
switch fluorescence ratio: 0.955

TAATTTAGGC
switch fluorescence ratio: 0.913

TTGAGCAATC
switch fluorescence ratio: 3.94

CCTGCGGTG
switch fluorescence ratio: 1.29

ACCCTGGGG
switch fluorescence ratio: 1.03

TCAATGGGCA
switch fluorescence ratio: 0.981

TGCGTGCTTG
switch fluorescence ratio: 0.994

AGCGAGTGGG
switch fluorescence ratio: 1.05

CTAGCACTAG
switch fluorescence ratio: 1.15

CTAGGGGGCC
switch fluorescence ratio: 0.968

AGGTGACCT
switch fluorescence ratio: 1.07

ATTAATTTAG
switch fluorescence ratio: 0.977

ACATCCTTTA
switch fluorescence ratio: 1.01

CTTACTGGG
switch fluorescence ratio: 0.986

TTCGTTTGCC
switch fluorescence ratio: 1.01

AAGTAGAACA
switch fluorescence ratio: 0.994

TTTACATGAC
switch fluorescence ratio: 1.11

GGGGTACTTA
switch fluorescence ratio: 0.998

GTAATGTCGG
switch fluorescence ratio: 0.978

AGGAGCTTAC
switch fluorescence ratio: 2.17

CGGCATCTAC
switch fluorescence ratio: 2.75

TGGAAGCCAT
switch fluorescence ratio: 0.996

GCCGAGAATT
switch fluorescence ratio: 1.02

GATTTGACAT
switch fluorescence ratio: 0.991

ATGAGCGGTT
switch fluorescence ratio: 1.01

TTTCAGACTA
switch fluorescence ratio: 1

AAGCTTAGTT
switch fluorescence ratio: 0.994

GCGGATGGTT
switch fluorescence ratio: 1

GAAGATTGAG
switch fluorescence ratio: 0.983

GCGCTATTCG
switch fluorescence ratio: 1.01

AAAACTTGGG
switch fluorescence ratio: 1.03

TATACGAGGA
switch fluorescence ratio: 1.07

CCCTTTAAG
switch fluorescence ratio: 0.992

CAATACCTGC
switch fluorescence ratio: 1.11

TTCACATAGG
switch fluorescence ratio: 1.02

TGTGCGACAA
switch fluorescence ratio: 1.34

GACAATTATA
switch fluorescence ratio: 1.02

TTTCTCAATA
switch fluorescence ratio: 2.26

CATACTTTCA
switch fluorescence ratio: 1.02

GAGTCTACGC
switch fluorescence ratio: 0.969

GATAACACTC
switch fluorescence ratio: 1.06

GAATAGCCAT
switch fluorescence ratio: 1.01

GAATTCGAG
switch fluorescence ratio: 0.987

CTCCAAGAGG
switch fluorescence ratio: 1.37

CATATCGTCC
switch fluorescence ratio: 1.02

GTGGCCGGAG
switch fluorescence ratio: 1.02

GTCGGTTAGT
switch fluorescence ratio: 0.998

GCACCTGTTC
switch fluorescence ratio: 1.07

GTGTTCCCGA
switch fluorescence ratio: 0.982

ATTAAAGTGT
switch fluorescence ratio: 1.02

AACGCAAAAA
switch fluorescence ratio: 1.26

CGTCATAAGC
switch fluorescence ratio: 1.09

GAAAGGAGTG
switch fluorescence ratio: 1.03

GCACAATAAG
switch fluorescence ratio: 1.05

CTACGAAGCC
switch fluorescence ratio: 1.47

GCTGGCCGCG
switch fluorescence ratio: 1

CACGTATGAA
switch fluorescence ratio: 1.13

TTGGTCGGCT
switch fluorescence ratio: 1.04

TCTGAGTT
switch fluorescence ratio: 0.98

GGTGCGGGT
switch fluorescence ratio: 1.02

CACTTAAGTC
switch fluorescence ratio: 1.04

TCAGCAAAGG
switch fluorescence ratio: 1.16

TAGCATAGA
switch fluorescence ratio: 0.998

GCACCTTCGC
switch fluorescence ratio: 1.76

AAATAAGTT
switch fluorescence ratio: 1.04

AAGAGGTAGC
switch fluorescence ratio: 1.22

ATGGGGTAAA
switch fluorescence ratio: 0.968

GGCCTTAGTG
switch fluorescence ratio: 0.968

TAGGGAGGTA
switch fluorescence ratio: 1.08

AGTTTTTAGT
switch fluorescence ratio: 0.966

CATAGCCCGA
switch fluorescence ratio: 1.03

ATAGTGCGTC
switch fluorescence ratio: 1.06

TCAGACAATT
switch fluorescence ratio: 1.05

CCGTTACTGG
switch fluorescence ratio: 1.06

TCCAGGCATC
switch fluorescence ratio: 1.08

ATTGAGGTCT
switch fluorescence ratio: 1.01

CAAGGCCGCG
switch fluorescence ratio: 1.05

ACCGCCGAGC
switch fluorescence ratio: 1.88

TACTGCTGT
switch fluorescence ratio: 0.996

TAGAGACAAC
switch fluorescence ratio: 1.02

CCCAGGAGCT
switch fluorescence ratio: 1.36

CGGGAGTGTG
switch fluorescence ratio: 0.984

GATCTACTAC
switch fluorescence ratio: 1.06

AGTGGGAATA
switch fluorescence ratio: 1.01

ACGCTTGGC
switch fluorescence ratio: 1.08

TCTCGCGTTG
switch fluorescence ratio: 0.98

CAGAATACCT
switch fluorescence ratio: 1.12

AAAATCAAAA
switch fluorescence ratio: 1.01

TTCGAAAACG
switch fluorescence ratio: 0.998

ATCAGAGTTC
switch fluorescence ratio: 0.988

CTTGATGGTT
switch fluorescence ratio: 0.966

GCCGGAGTCG
switch fluorescence ratio: 0.831

TGGGGGCTCG
switch fluorescence ratio: 0.953

TAACGCGACT
switch fluorescence ratio: 1.15

GAAAAAAGTC
switch fluorescence ratio: 0.977

GTCCGAGGTT
switch fluorescence ratio: 0.993

CAATGGGACT
switch fluorescence ratio: 0.972

ATAAAAGCAT
switch fluorescence ratio: 0.981

CTTGGGTCTT
switch fluorescence ratio: 1

TAGCAGAAAG
switch fluorescence ratio: 0.961

AACTTTTGCA
switch fluorescence ratio: 1.04

TCCTGGGACG
switch fluorescence ratio: 1.07

TCGATGTATG
switch fluorescence ratio: 0.98

TCACTATGCT
switch fluorescence ratio: 1.05

TTCAAGTCAA
switch fluorescence ratio: 1.08

TTGCCGCTTA
switch fluorescence ratio: 1.08

CGGGCACTT
switch fluorescence ratio: 0.999
